The supplement of paper PMC10369915
The list shows a part of the results. No stated cut-off is given here; in the data, active = 3.2 or more and inactive = the rest. Only a few entries rise above the background.

B1: MYOC_Y479_I477S (peptide)
chain: SSMSDYNPLEK
B2: MYOM2_Y1024 (peptide)
chain: KSELAYEIFDK
B3: MYOC_Y479_N480K (peptide)
chain: SSMIDYKPLEK
B4: NEB_Y2770 (peptide)
chain: AKRKGYDMRVD
B5: NCAPD2_Y6 (peptide)
chain: MAPQMYEFHLP
B6: MYOF_Y1137 (peptide)
chain: NFDRVYIYHLR
B7: MYOM2_Y317 (peptide)
chain: PRAEWYRDDVL
B8: NATD1_Y45_YF (peptide)
chain: RAVLLYEFVGK
B9: NBEAL2_Y1835 (peptide)
chain: SSAETYSRMRL
B10: NDRG2_Y47_G48V (peptide)
chain: SVETPYVSVTF
B11: MYOF_Y1705_G1701A (peptide)
chain: YAGRDYSLDEF
B12: MYORG_Y36 (peptide)
chain: AAAAMYTFLPD
B13: NATD1_Y45_V42I (peptide)
chain: RAILLYEYVGK
B14: MYOC_Y479_I477N (peptide)
chain: SSMNDYNPLEK
B15: NDUFS8_Y84_P85L (peptide)
chain: PATINYLFEKG
B16: NATD1_Y45_V42I_YF (peptide)
chain: RAILLYEFVGK
B17: MYOF_Y1137_V1136I_YF (peptide)
chain: NFDRIYIFHLR
B18: NDST1_Y714_R709Q (peptide)
chain: QAYSWYQHQRA
B19: NANS_Y71 (peptide)
chain: ALERPYTSKHS

target: SHP2 C-SH2 domain E139D; assay: enrichment score (SH2-bound / input frequency) (ratio); bacterial display of known human phosphotyrosine sites (pTyr-Var adds point mutants) read by sequencing; higher = stronger binding; tyrosines were phosphorylated by kinases first; conditions: peptide library: pTyr-Var
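Further: displayed peptides selected on beads carrying the immobilized SH2 domain, with library peptides lacking any tyrosine serving as negative controls.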

Binder | enrichment score
B1 | inactive: 0.629
B2 | inactive: 0.827
B3 | inactive: 0.48
B4 | inactive: 0.552
B5 | inactive: 0.954
B6 | inactive: 2.38
B7 | inactive: 0.842
B8 | inactive: 1.91
B9 | inactive: 0.7
B10 | inactive: 1.01
B11 | inactive: 0.756
B12 | inactive: 1.24
B13 | active: 3.87
B14 | inactive: 0.731
B15 | inactive: 1.58
B16 | inactive: 2.42
B17 | active: 3.21
B18 | inactive: 1.34
B19 | inactive: 0.762

target: SHP2 C-SH2 domain wild-type; assay: as above; conditions: peptide library: pTyr-Var

Binder | enrichment score
B1 | inactive: 0.596
B2 | inactive: 0.87
B3 | inactive: 0.466
B4 | inactive: 0.47
B5 | inactive: 0.886
B6 | inactive: 3.1
B7 | inactive: 0.871
B8 | inactive: 2.38
B9 | inactive: 0.638
B10 | inactive: 1.41
B11 | inactive: 0.724
B12 | inactive: 1.15
B13 | active: 3.56
B14 | inactive: 0.768
B15 | inactive: 0.881
B16 | inactive: 2.91
B17 | inactive: 2.78
B18 | inactive: 1.19
B19 | inactive: 0.626

target: SHP2 N-SH2 domain L43F; assay: as above; conditions: peptide library: pTyr-Var

Binder | enrichment score
B1 | inactive: 0.576
B2 | inactive: 0.879
B3 | inactive: 0.615
B4 | inactive: 0.449
B5 | inactive: 0.904
B6 | active: 3.3
B7 | inactive: 0.762
B8 | inactive: 2.16
B9 | inactive: 0.663
B10 | inactive: 1.27
B11 | inactive: 0.891
B12 | inactive: 1.01
B13 | active: 3.48
B14 | inactive: 0.735
B15 | inactive: 1.41
B16 | inactive: 2.49
B17 | inactive: 2.96
B18 | inactive: 1.14
B19 | inactive: 0.675

target: SHP2 N-SH2 domain T42A; assay: as above; conditions: peptide library: pTyr-Var

Binder | enrichment score
B1 | inactive: 0.622
B2 | inactive: 0.719
B3 | inactive: 0.509
B4 | inactive: 0.465
B5 | inactive: 0.709
B6 | inactive: 1.64
B7 | inactive: 0.722
B8 | inactive: 2.02
B9 | inactive: 0.583
B10 | active: 3.22
B11 | inactive: 0.712
B12 | inactive: 0.93
B13 | active: 3.25
B14 | inactive: 0.658
B15 | inactive: 1.67
B16 | inactive: 2.53
B17 | inactive: 2.58
B18 | inactive: 1.28
B19 | inactive: 0.533

target: SHP2 N-SH2 domain T52S; assay: as above; conditions: peptide library: pTyr-Var

Binder | enrichment score
B1 | inactive: 0.617
B2 | inactive: 0.847
B3 | inactive: 0.732
B4 | inactive: 0.519
B5 | inactive: 0.691
B6 | active: 4.33
B7 | inactive: 0.879
B8 | inactive: 2.36
B9 | inactive: 0.582
B10 | inactive: 1.5
B11 | inactive: 0.651
B12 | inactive: 1.01
B13 | inactive: 3.06
B14 | inactive: 0.724
B15 | inactive: 1.02
B16 | inactive: 2.52
B17 | inactive: 2.96
B18 | inactive: 1.18
B19 | inactive: 0.799

target: SHP2 N-SH2 domain wild-type; assay: as above; conditions: peptide library: pTyr-Var

Binder | enrichment score
B1 | inactive: 0.876
B2 | inactive: 0.859
B3 | inactive: 0.673
B4 | inactive: 0.435
B5 | inactive: 1
B6 | inactive: 1.88
B7 | inactive: 0.777
B8 | inactive: 2.27
B9 | inactive: 0.63
B10 | inactive: 1.46
B11 | inactive: 0.667
B12 | inactive: 1.2
B13 | inactive: 3.06
B14 | inactive: 0.79
B15 | inactive: 1.42
B16 | inactive: 3.06
B17 | inactive: 3.02
B18 | inactive: 1.34
B19 | inactive: 0.948
